Measurements taken from PubChem BioAssay AID624296 (National Center for Advancing Translational Sciences (NCATS), 2012).
In all, about 350,000 compounds went through this assay and about 9,900 (2.8%) were called active. Inconclusive results, whose numbers are uncertain, are shown with a selection of clear calls. The call rests on the fitted dose curve; in most records, active means well fitted activation curve with a large enough effect; inconclusive means small, poorly fitted or top-dose-only effect; inactive means no such curve, though single readings can be large or run the other way. Potencies of inconclusive entries are left out as doubtful fits.

Assay: A quantitative high throughput screen for small molecules that induce DNA re-replication in MCF 10a normal breast cells. Further: nearly all actives have a fitted effect of over 50% in size.
Settings: MCF 10A DNA re-replication, Hoechst nuclear intensity, 48 h; series mostly up to 46.1 µM
Potency means the concentration at half of the fitted maximal effect; tags describe the fitted curve by direction and shape.

Structure (SMILES) | Potency
COc1ccc(SCC(=O)Nc2ccc(N3CCN(C)CC3)c(F)c2)cc1 | inconclusive [activator, partial curve, poor fit]
CCC(C)NC(=O)c1cn(CC)c2ccc(S(=O)(=O)N3CCCCCC3)cc2c1=O (centres undefined) | inactive
Cc1ccc(NC(=O)c2cccc3c2C(=O)N(C2CCCCC2)C3)cc1 | inconclusive [activator, single point]
Cc1ccc(NC2=C(N3CCCCC3)C(=O)c3ccccc3C2=O)cc1 | active: 5.8 µM
Cc1nc(NNC(=O)c2ccccc2)cc(-c2ccccc2)n1 | inconclusive [activator, single point]
CCCN1CCc2c(sc(NC(=O)c3ccc(S(=O)(=O)N4CCCC4)cc3)c2C(N)=O)C1 | inconclusive [activator, full curve, poor fit]
O=C(NCCc1c[nH]c2ccccc12)/C(=C\c1cccs1)NC(=O)c1ccccc1 | inconclusive [activator, single point]
Cc1c(NS(C)(=O)=O)cccc1-c1nc2cccnc2s1 | inconclusive [activator, partial curve, poor fit]
Cc1ccc2c3c1C(=O)C(=O)N3C(C)(C)CC2C (centres undefined) | active: 25.9 µM
CCN(CC)C(=O)[C@H]1CC(CC(=O)NCCC2=CCCCC2)C(=O)N2CCc3c([nH]c4ccc(OC)cc34)[C@]12C (some centres undefined) | inactive
O=C(NCC(c1cccnc1)N1CCOCC1)NC1CCCCC1 (centres undefined) | inconclusive [activator, partial curve, poor fit]
O=c1cc(-c2ccccc2)nc(/C=C/c2ccccc2)[nH]1 | active: 18.4 µM
Cc1ccc(S(=O)(=O)N2CCN(C(=O)c3c(C)nn(-c4ccccc4)c3Cl)CC2)cc1 | inconclusive [activator, single point]
COc1cc(-c2noc(C)c2C(=O)NCCCN2CCCC2=O)cc(OC)c1OC | inconclusive [activator, partial curve, poor fit]
O=[N+]([O-])/C=C/c1cn(Cc2ccc(F)cc2)c2ccccc12 | inconclusive [activator, single point]
COc1ccc(NC(=O)CCSc2ccc3ccccc3n2)cc1 | active: 10.3 µM
CC(=O)N[C@@H](Cc1c[nH]c2ccccc12)C(=O)OCc1ccc(C#N)cc1 | inconclusive [activator, single point]
CC(C)C[C@H](NC(=O)c1[nH]cnc1C(=O)N[C@@H](Cc1ccccc1)C(=O)OC(C)(C)C)C(=O)OC(C)(C)C | inconclusive [activator, partial curve, poor fit]
Cc1ccc(NC(=O)c2ccc(NCc3ccco3)c([N+](=O)[O-])c2)cc1Cl | inconclusive [activator, partial curve]
O=C(O)C1CCCN1S(=O)(=O)c1cccc(S(=O)(=O)N2CCCC2C(=O)O)c1 (centres undefined) | inactive
Cn1nnnc1SCC(=O)Nc1ccc(Cl)cn1 | inactive
O=C(NNC(=O)c1ccccc1OCc1ccc(F)cc1)c1ccccc1O | inactive

Structure (SMILES) | Potency
CSc1sc(C(=O)NCC2CC2)c(-c2cccs2)c1C#N | inconclusive [activator, partial curve, poor fit]
O=C(C1=C[C@H](c2csc3ccccc23)C[C@H](OCc2ccc(CO)cc2)O1)N1CCN(Cc2ccc3c(c2)OCO3)CC1 | active: 23.1 µM
CN1CCC(N(C)C(=O)/C=C/c2cn(-c3ccccc3)nc2-c2cccs2)CC1 | inconclusive [activator, partial curve, poor fit]
COc1cccc(C(O)CC(N)=O)c1 (centres undefined) | inconclusive [activator, full curve, poor fit]
CC(NC(=O)c1ccc(N2CCNCC2)c([N+](=O)[O-])c1)C12CC3CC(CC(C3)C1)C2 (centres undefined) | inconclusive [activator, single point]
COc1ccc(CC(=O)Nc2cccc(SC)c2)cc1OC | inactive
CC(C)c1ccccc1-n1c(SCc2cc(=O)oc3ccc4ccccc4c23)nnc1-c1cccnc1 | inactive
CC(=O)c1c(C)[nH]c(C(=O)OCn2nnc3ccccc3c2=O)c1C | inactive
CCOC(=O)C1(CCc2ccccc2)CCN(Cc2cc(OC)c(OC)cc2OC)CC1 | inconclusive [activator, partial curve, poor fit]
O=C(CN1CCN(C(=O)c2ccccc2)CC1)NC(=O)NCCC1=CCCCC1 | inconclusive [activator, single point]
CCN(C(=S)NCc1ccccc1)c1cccc2ccccc12 | inconclusive [activator, partial curve, poor fit]
COc1ccc(NC(=O)CCN2C(=O)c3ccccc3S2(=O)=O)cc1 | inconclusive [activator, full curve, poor fit]
CCc1cc2ccc(OC)cc2nc1SCC(=O)Nc1cc(C)on1 | active: 13 µM
O=C(N/N=C/C(Br)=C/c1ccccc1)C1CC1 | inconclusive [activator, single point]
CN(C)/N=C/c1cn(-c2ccccc2)nc1-c1cccnc1 | inactive
COC(=O)N/N=C/c1cn(CCCOc2ccc(C)cc2)c2ccccc12 | inconclusive [activator, single point]
COc1cc(NC(=O)C(=O)NNC(=O)C2CCCCC2)c(OC)cc1Cl | inconclusive [activator, single point]
CC(C)Oc1ccc(CNC(=O)c2ccc3c(c2)N(C)CCS3)cc1 | inconclusive [activator, partial curve, poor fit]
Cc1ccc(NC(=O)C2CCN(c3ncnc4sc(C)c(C)c34)CC2)cc1S(=O)(=O)N(C)C | inconclusive [activator, partial curve, poor fit]
Cc1cc(Cl)ccc1NC(=S)NCc1ccc(F)cc1 | inactive
CC(C)C1N=C2c3ccccc3N=C(SCC(=O)c3ccc(O)c(O)c3)N2C1=O (centres undefined) | inconclusive [activator, single point]
O=C(c1ccco1)N(Cc1ccc(Cl)cc1)C1CCS(=O)(=O)C1 (centres undefined) | inconclusive [activator, partial curve, poor fit]

Structure (SMILES) | Potency
CCOC(=O)C1=C(Nc2ccccc2)CC(C)(O)C(C(=O)OCC)C1c1ccc(Cl)cc1 (centres undefined) | inconclusive [activator, single point]
O=C(COc1ccccc1F)N1N=C(c2cccs2)CC1c1ccco1 (centres undefined) | inconclusive [activator, single point]
O=C(/C=C/c1cccc([N+](=O)[O-])c1)NC(=S)Nc1ccc(CN2CCOCC2)cc1 | inactive
CCOc1ccc2[nH]c(=O)c(CN(Cc3ccco3)Cc3nnnn3Cc3ccccc3)cc2c1 | inconclusive [activator, partial curve, poor fit]
CCc1nc(N2CCCC2C(=O)O)c2oc3ccccc3c2n1 (centres undefined) | inactive
COc1ccc(-c2nc(CN3CCN(c4ncnc5ccccc45)CC3)c(C)o2)c(OC)c1 | inconclusive [activator, single point]
C#CCOCCOCCOCCNc1nc(N2CCN(C(=O)CCCCCCCCCCNC(=O)Cn3cc(C[C@@H](C)O)nn3)CC2)nc(N2CCN(C(=O)CCCCCCCCCCNC(=O)Cn3cc(C[C@@H](C)O)nn3)CC2)n1 | inconclusive [activator, partial curve, poor fit]
N#Cc1c(N)nc(SCC(=O)OCc2ccccc2)c(C#N)c1-c1ccco1 | inconclusive [activator, partial curve, poor fit]
CCCN(CCC)Cc1c(C(=O)N/N=C/c2ccc(Br)cc2)nnn1-c1nonc1N | inconclusive [activator, partial curve, poor fit]
Cc1ccc(NC(=S)Nc2nc(CC(=O)Nc3ccccc3)cs2)cc1 | inconclusive [activator, partial curve, poor fit]
Cc1cccc2cc(CN(CC3CCCO3)C(c3nnnn3Cc3ccco3)C(C)C)c(=O)[nH]c12 (centres undefined) | inconclusive [activator, partial curve, poor fit]
CCn1c(=O)c(C(=O)NCc2ccccc2)c(O)c2ccccc21 | inconclusive [activator, full curve]
Cc1cc(CNC[C@H]2O[C@@H](n3cnc(C(N)=O)n3)[C@H](O)[C@@H]2O)c(C)n1-c1cccnc1 | inconclusive [activator, full curve]
CCN(CC)c1nc(C#N)cc(-c2ccc(OC)cc2)n1 | active: 14.6 µM
CCN(C(=O)CSc1ccc2ccccc2n1)C1CCCCC1 | inconclusive [activator, partial curve]
O=C(Nc1nc2ccccc2[nH]1)C1CCCO1 (centres undefined) | inconclusive [activator, single point]
CCOC(=O)C1C(c2ccc3c(c2)OCO3)NC(=O)NC1(O)C(F)(F)F (centres undefined) | inconclusive [activator, single point]
O=S(=O)(c1cc(C(F)(F)F)ccc1Cl)N1CCCCCC1 | inconclusive [activator, single point]
Cn1nc(-c2ccccc2)c2ncc(C(F)(F)F)cc21 | inactive
Cc1cn([C@H](C(=O)NCCCCCCCCCCC(=O)N2CCNCC2)[C@@H](C)O)nn1 | inconclusive [activator, single point]
